Variants at the floor of the assay are shown more often than the library holds them.

B1: tRNA (parent)
chain: CUCUCGGUAGCCAAGUUGGUUUAAGGCGCAAGACUUUAAUUUAUCACUACGAAAUCUUGAGAUCGGGCGUUCGACUCGCCCCCGGGAGAUUUUUUCCUCGAGCAA

This data set covers variants of B1. Put plainly: nonsense suppression (GFP-seq) (ratio to wild type); higher = more function; SUP4oc tRNA, yeast GFP reporter sort-seq. In outline:
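Yeast carrying genome-integrated SUP4oc tRNA variants from a library with ~3% random mutations were grown in raffinose/galactose medium with 80 mg/L adenine. Each strain also carried a galactose-driven GFP ochre reporter and RFP. Cells were sorted into GFP/RFP bins, and each bin was Illumina-sequenced (phred ≥30). Nonsense suppression (GFPSEQ) is the bin median GFP/RFP, weighted by each variant's estimated cell share per bin, relative to wild-type SUP4oc; variants needed ≥100 reads and ≥30 cells.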
With A23G U55A C82A, the nonsense suppression was at most 0.026.

On to U71A G85U, for which the nonsense suppression was at most 0.026.

Regarding U16A G19A, the nonsense suppression is at most 0.026.

Consider G25U C82A, for which the nonsense suppression is at most 0.026. With C3G G6A A74C C82U A87C G88A the figure was at most 0.026; with A14G U76C, at most 0.026. For A33C U55A G67C, the nonsense suppression is at most 0.026. The result for A24C G59A reads at most 0.026; that for G61A G67U, at most 0.026. The result for C3U U35A reads at most 0.026. For the variant G15C U63C, the nonsense suppression is at most 0.026. As to C81A A89G, the nonsense suppression is at most 0.026. With U2G G84U the figure was at most 0.026; with G32A C34G U35G U58A, at most 0.026; with A23G A31C, at most 0.026. On to U21C U58A C82A, for which the nonsense suppression was at most 0.026. Consider A13U G25A G59C, for which the nonsense suppression was at most 0.026. For the variant G18U A30C U70C A74C, the nonsense suppression was at most 0.026. For G66U G88C, the nonsense suppression was at most 0.026. The result for U20G A62C A74G reads at most 0.026; that for U21C U63A, 1.12.

As for U4A A24C, the nonsense suppression is at most 0.026. As to A60C G65C U76C G78C, the nonsense suppression is at most 0.026. On to G18A C82G, for which the nonsense suppression is at most 0.026.

Regarding U21G C29U C82A, the nonsense suppression is at most 0.026. The result for G7U A31U G84A reads at most 0.026. The result for U8A A54U C79A reads at most 0.026; that for A24C C29G C79G, at most 0.026; that for A14U C82G, at most 0.026. With G66A U70A the figure was at most 0.026; with C5A G78C C81A, at most 0.026; with C12U U17C A89G, at most 0.026.

Take G6U A31G G78U: the nonsense suppression is at most 0.026.

For U8C A30C A89C, the nonsense suppression is at most 0.026. The result for A9U G15C U20C A30U A33G U57G C81G reads at most 0.026; that for A24G U76A, at most 0.026; that for C29U C79U G86A, at most 0.026. For the variant G7A G15C U16C, the nonsense suppression is at most 0.026. With G7U C34U G66A C82A, the nonsense suppression was at most 0.026. With A13U A33G the figure was 0.194; with C56G G69A U71C, at most 0.026. With U16G G28U U35G G59A G85A the figure was at most 0.026; with G6A U63C C83A, at most 0.026; with U55A C64U, at most 0.026. With A9C A33U, the nonsense suppression was at most 0.026. With C3G A23U C72A the figure was at most 0.026.

As to G15C U22C G28C, the nonsense suppression was at most 0.026. The result for U16C U17C G18A G67A reads at most 0.026; that for U35C U57A G61C, at most 0.026. On to C3A G88A, for which the nonsense suppression is at most 0.026. Turning to C29A U71G, the nonsense suppression was at most 0.026. The result for A31G A33G C56A G65U reads at most 0.026.

In the case of C3A G78A, the nonsense suppression was 0.0776. For the variant C12U U22C G25C U55G G59A U63G, the nonsense suppression is at most 0.026. Turning to C1G A14C, the nonsense suppression is at most 0.026. With U35A U55G G61C C68A the figure was at most 0.026.

With U2G G7A, the nonsense suppression is at most 0.026. The result for G19A C72A G86U reads at most 0.026; that for C12U C34U, at most 0.026; that for U21G G32A U76G, at most 0.026. With A14G G26U U57C, the nonsense suppression was at most 0.026.

Consider G61C A89C, for which the nonsense suppression is at most 0.026. On to G73A C79U, for which the nonsense suppression stood at 0.207.

Take G10U G59C: the nonsense suppression is at most 0.026. With C56G G88A the figure was at most 0.026. With A30C G32U G84A the figure was at most 0.026; with U2A A23C, at most 0.026.

Take G15U C64G: the nonsense suppression was at most 0.026.

Consider C12G G26C G59A C83A, for which the nonsense suppression was at most 0.026. For A31C A62G C82U, the nonsense suppression was at most 0.026. As to U21C C79A, the nonsense suppression is at most 0.026. Take C27G C29A U57A: the nonsense suppression was at most 0.026. The result for A9G G66A G67U A74G reads at most 0.026. On to U20G U58G C68U, for which the nonsense suppression was at most 0.026. For the variant G19U C81A, the nonsense suppression was at most 0.026. C12A A13C C80G: the nonsense suppression was at most 0.026. With A24C C56U G78C, the nonsense suppression was at most 0.026. The result for C3U A13U C34G reads at most 0.026; that for C1U C3U, at most 0.026. On to A33G G66U, for which the nonsense suppression is at most 0.026. Turning to U2G G86U, the nonsense suppression was at most 0.026.

With U4C A24G U55A, the nonsense suppression is at most 0.026. With C5U U17C G19U U20G G25U the figure was at most 0.026. With C3A U8C the figure was at most 0.026; with C1U U21C G69U C83G G85A A87U A89G, at most 0.026. Regarding C12G C81U, the nonsense suppression was at most 0.026. With C29U C79G G86A the figure was at most 0.026; with C34G G78C, at most 0.026. The result for G59A G67A reads at most 0.026.

Consider U55A C56A U70A G84A A87C, for which the nonsense suppression was at most 0.026.

G18C U21A: the nonsense suppression was at most 0.026.

In the case of C1U G66C G73C A87C, the nonsense suppression was at most 0.026.

With C11U G18U G25A, the nonsense suppression was at most 0.026.

U20G C29G U35G G67C: the nonsense suppression is at most 0.026. Turning to C1A A9U U57C, the nonsense suppression is at most 0.026. With A62C C77U the figure was at most 0.026. The result for A23G G32C A60U reads at most 0.026.

For C1G C11A, the nonsense suppression was at most 0.026. With G18U A87U the figure was at most 0.026. With U4G A54C C56U the figure was at most 0.026; with U16G C29A C79G, at most 0.026.

On to G10U C34A, for which the nonsense suppression was at most 0.026. With U57G C68A U76G the figure was at most 0.026; with U20C G28A U57G C77A, 0.813; with A24G U35G, at most 0.026.

On to C79G G85A, for which the nonsense suppression was at most 0.026.

Consider C12A U20A, for which the nonsense suppression is at most 0.026. The result for G26U U70G C79U reads at most 0.026; that for A14U G32U A60U, at most 0.026. Turning to G10U G86A, the nonsense suppression was at most 0.026. On to C34A A54G, for which the nonsense suppression is at most 0.026. With U55A G73A the figure was at most 0.026; with G18U U57A, at most 0.026. The result for C64G A87U reads at most 0.026; that for G15C C29U A54U U58G, at most 0.026. For the variant G18U U71G C81A, the nonsense suppression was at most 0.026.

Turning to G18U G19C U21C U55A G86A, the nonsense suppression is at most 0.026. C3G C5U A23G: the nonsense suppression was at most 0.026. The result for A31U G84U reads at most 0.026. With U71A C77G G84U the figure was at most 0.026; with U58A G78A, at most 0.026. With A24G C79U G86A the figure was at most 0.026; with C3A A23C G59U G66U, at most 0.026; with A23U G69U, at most 0.026.

For the variant C1U C29A A33U, the nonsense suppression was at most 0.026. The result for A14C U17C C75U G84C reads at most 0.026; that for G6U G10A G67A, at most 0.026; that for C11G G19U U20A, at most 0.026. U20C C34U G61C C75U C77G: the nonsense suppression is at most 0.026. With U8G C11A C72A the figure was at most 0.026; with A30U G61A, 0.0365; with G18C G86A, at most 0.026. As to G6A U8A U35A G69A, the nonsense suppression was at most 0.026. With U20G U58G the figure was at most 0.026; with G7U C29U G65A C77A G88C, at most 0.026. With A13U C27A C29A A60C the figure was at most 0.026; with C3U G7U G66C, at most 0.026; with C5U A9G, 0.0324. For G7C U57A G65C G69A, the nonsense suppression is at most 0.026.

In the case of C12A C77A G86U, the nonsense suppression was at most 0.026. Regarding C3A G19U G25A, the nonsense suppression was at most 0.026. The result for G32U C80G reads at most 0.026; that for A13U G15U C75U, at most 0.026. The result for G19C G25C C83A reads at most 0.026; that for G10U G18A C75U, at most 0.026.

Turning to U8A C34A G85A, the nonsense suppression was at most 0.026.

In the case of G32C G86U, the nonsense suppression is at most 0.026. The result for A14G G86U reads at most 0.026. The result for G28U A31C U35A C72A G73A reads at most 0.026; that for C12G U16C A23G, 0.207.

Turning to G26U G73A, the nonsense suppression is at most 0.026. U70A C80G: the nonsense suppression was at most 0.026.

In the case of A31G C79A, the nonsense suppression is at most 0.026. G18A C29G G69C: the nonsense suppression is at most 0.026. Consider C12G A13C, for which the nonsense suppression was at most 0.026. With G26C C75G U76A the figure was at most 0.026. The result for U2A G26C A30U G67A C80A reads at most 0.026. Regarding A54U G59C C82G, the nonsense suppression was at most 0.026. For U4A C11G C34U G61A A74U G88U, the nonsense suppression is at most 0.026. With U2G U8C U20C the figure was at most 0.026; with C1G U21A C34U, at most 0.026; with U16A U70A, at most 0.026. With A31U C81A C82G the figure was at most 0.026. With U17G G32A C83U the figure was at most 0.026; with G15A A60C, at most 0.026; with C11U A31C A33G G73C, at most 0.026. Consider A9C C11U C27U G86U, for which the nonsense suppression was at most 0.026.

The values are drawn from the RNAGym collection of RNA variant scans (doi:10.1101/gad.245936.114).
